Our source for the fractional viability values is the supplement of paper PMC5919970.

Where a name gives a salt, the structure may show the parent alone. Whole data set: some 2,000 compounds, median “fractional viability relative to vehicle” near 0.92, cut for the lowest 2% near 0.11. This is one part of the list.

The experiment has as its system TYKNU. The experiment in a line: fractional viability relative to vehicle; TYKNU is a high-grade serous ovarian cancer line; higher = less growth inhibition. Particulars: 72 h, genotype: OPA1 knockout (sgOPA1 #2). The essentials: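 TYKNU control cells or lentiCRISPRv2 knockout derivatives were plated at 500 cells per well in duplicate into drug-stamped 384-well plates holding a ~2100-compound library at 2 or 10 μM. Culture was in RPMI 1640 with 10% FBS at 37 °C in 5% CO2, with 72 h of drug treatment. Viability was measured by Cell Titer Glo luminescence, and the averaged duplicate treatment wells were normalised to duplicate control wells at the same plate position.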

On to `COc1cc(-n2c(=S)[nH]c3ccccc3c2=O)c(Cl)cc1Cl` [Mdivi-1], for which the fractional viability was determined as 0.891 (2uM) and 0.759 (10uM).
Take `CC(=O)Nc1ccc(Cc2ccc(NC(C)=O)cc2)cc1`: the fractional viability by setting is: (2uM) 0.777; (10uM) 0.739.
Taken in the same sequence, the figures for `CCCN1C[C@H](CSC)C[C@@H]2c3cccc4[nH]cc(c34)C[C@H]21` [Pergolide mesylate] were 0.978 and 0.96.
Taken in the same sequence, the figures for `C[C@]12N[C@H](Cc3ccccc31)c1ccccc12` [MK-801 (Dizocilpine)] were 1.04 and 0.956.
Taken in the same sequence, the figures for `C[C@](O)(COc1ccc(C#N)cc1)C(=O)Nc1ccc(C#N)c(C(F)(F)F)c1` were 0.943 and 0.869.
Take `CC(=O)Nc1ccc(OC[C@](C)(O)C(=O)Nc2ccc([N+](=O)[O-])c(C(F)(F)F)c2)cc1` [Andarine]: the fractional viability was 1.18 (2uM) and 1.18 (10uM).
Regarding `COC(=O)C1=CCCN(C)C1` [Arecoline], the fractional viability stood at 1.04 (2uM) and 0.781 (10uM).
On the same counts, the results for `CNCC(=O)c1ccc(O)c(O)c1` [Adrenalone HCl] are 1.06 and 0.78.
Taken in the same sequence, the figures for `CC(C)N(CCNC(=O)CN1CCCC1=O)C(C)C` [Pramiracetam] were 1.15 and 0.839.
On the same counts, the results for `C[C@]12CC[C@H]3[C@@H](CC[C@@]45O[C@@H]4C(O)=C(C#N)C[C@]35C)[C@@H]1CC[C@@H]2O` [Trilostane] are 1.02 and 1.14.
`C[C@@H]1O[C@@H](O[C@H]2C[C@@H](O)[C@]3(CO)[C@H]4[C@H](O)C[C@]5(C)[C@@H](C6=CC(=O)OC6)CC[C@]5(O)[C@@H]4CC[C@]3(O)C2)[C@H](O)[C@H](O)[C@H]1O` [Ouabain]: the fractional viability by setting is: (2uM) 0.136; (10uM) 0.126.
Taken in the same sequence, the figures for `NCC(O)c1ccc(O)cc1` (racemic) [(+,-)-Octopamine HCl] were 0.98 and 1.01.
On the same counts, the results for `C[C@]12CC[C@H](O)C[C@@H]1CC[C@@H]1[C@@H]2CC[C@]2(C)C(=O)CC[C@@H]12` [Epiandrosterone] are 1.08 and 0.914.
Taken in the same sequence, the figures for `C[N+]1(C)[C@@H]2C[C@@H](OC(=O)[C@H](CO)c3ccccc3)C[C@H]1[C@@H]1O[C@@H]12` [Methscopolamine] were 0.982 and 0.966.
Take `CN(C)C(=O)Oc1cc(OC(=O)N(C)C)cc(C(O)CNC(C)(C)C)c1` (stereo unspecified) [Bambuterol HCl]: the fractional viability is, setting by setting: (2uM) 0.928; (10uM) 1.
On the same counts, the results for `CCN(C)C(=O)Oc1cccc([C@H](C)N(C)C)c1` [Rivastigmine Tartrate] are 0.932 and 1.07.
On the same counts, the results for `CCC1(c2ccc(N)cc2)CCC(=O)NC1=O` (stereo unspecified) [Aminoglutethimide] are 1.04 and 1.04.
`NC(=O)CN1CCCC1=O` [Piracetam] came in with a fractional viability (2uM) of 1.13 and a fractional viability (10uM) of 0.943.
`O=P1(NCCCl)OCCCN1CCCl` (stereo unspecified) [Ifosfamide] returned a fractional viability (2uM) of 1.31 and a fractional viability (10uM) of 1.05.
On the same counts, the results for `O=C1CCC[C@@H]2[C@H]3CCCN4CCC[C@@H](CN12)[C@@H]34` [(+)-Matrine] are 0.865 and 0.808.
Taken in the same sequence, the figures for `Cc1cccc(C)c1NC1=NCCCS1` [Xylazine HCl] were 0.823 and 0.79.
On the same counts, the results for `O=C(Oc1ccc([N+](=O)[O-])cc1)N1CCC(C(O)(c2ccc3c(c2)OCO3)c2ccc3c(c2)OCO3)CC1` are 0.994 and 0.739.
Regarding `CC[C@@H]1/C=C/C=C/C[C@H](C)[C@H](O)[C@](C)(O)C(=O)[C@H](C)[C@@H](O)[C@H](C)C(=O)[C@H](C)[C@@H](O)[C@H](C)/C=C/C(=O)O[C@H]2[C@@H](C)[C@@H](CC1)O[C@@]1(CC[C@@H](C)[C@@H](C[C@H](C)O)O1)[C@@H]2C` [Oligomycin A], the fractional viability reads like this: (2uM) 1.01; (10uM) 0.871.
Taken in the same sequence, the figures for `CC(C)(C)[C@]1(O)CC2OC(=O)CC23C(=O)OC2OC(=O)[C@H](O)C231` (stereo partly specified) [Bilobalide] were 0.909 and 0.944.
On the same counts, the results for `Cc1cc(SCc2sc(-c3ccc(C(F)(F)F)c(F)c3)nc2C)ccc1OCC(=O)O` are 0.824 and 0.75.
Consider `O=C(O[C@H]1C[N+]2(CCCOc3ccccc3)CCC1CC2)C(O)(c1cccs1)c1cccs1` [Aclidinium Bromide], for which the fractional viability runs as follows: (2uM) 0.952; (10uM) 0.927.
On the same counts, the results for `CN[C@@H]1C[C@H]2O[C@@](C)([C@@H]1OC)n1c3ccccc3c3c4c(c5c6ccccc6n2c5c31)C(=O)NC4` [Staurosporine] are 0.264 and 0.0922.
On the same counts, the results for `C/C=C(\C)C(=O)N[C@@H](c1ccccc1)[C@@H](O)C(=O)O[C@H]1C[C@@]2(O)[C@@H](OC(=O)c3ccccc3)[C@@H]3[C@]4(OC(C)=O)CO[C@@H]4C[C@H](O)[C@@]3(C)C(=O)[C@H](OC(C)=O)C(=C1C)C2(C)C` [Cephalomannine] are 0.467 and 0.448.
On the same counts, the results for `CCC(COC(=O)c1cc(OC)c(OC)c(OC)c1)(c1ccccc1)N(C)C` (stereo unspecified) [Trimebutine] are 1.11 and 0.97.
Turning to `NCCc1c[nH]c2ccc(O)cc12` [Serotonin HCl], the fractional viability by setting is: (2uM) 1.02; (10uM) 1.02.
`COc1ccc(C[C@H]2NC[C@H](O)[C@H]2OC(C)=O)cc1` [Anisomycin]: the fractional viability was found to be 0.177 (2uM) and 0.217 (10uM).
With `COc1ccc2c(c1)/C(=C/c1cnc[nH]1)C(=O)N2`, the fractional viability by setting is: (2uM) 0.897; (10uM) 0.708.
Taken in the same sequence, the figures for `C[C@@H]1CC[C@H]2[C@@H](C)C(=O)O[C@@H]3O[C@@]4(C)CC[C@@H]1[C@]32OO4` [Artemisinin] were 0.982 and 0.733.
On the same counts, the results for `Cc1c(Cl)c(OCC(=O)N2CCN(C)CC2)nc2sc(C(=O)NC3CC3)c(N)c12` are 0.773 and 0.819.
Taken in the same sequence, the figures for `Cc1cccc([C@H](C)c2c[nH]cn2)c1C` [Dexmedetomidine] were 0.951 and 0.832.
On to `C#C[C@]1(O)C=C[C@H]2[C@@H]3CCC4=CC(=O)CC[C@@H]4[C@H]3CC[C@@]21CC` [Gestodene], for which the fractional viability by setting is: (2uM) 0.925; (10uM) 1.03.
Taken in the same sequence, the figures for `NCC(=O)O.[C-]#[O+].[C-]#[O+].[C-]#[O+].[Cl][Ru]` were 0.949 and 0.728.
On the same counts, the results for `C[C@@]12N[C@@H](Cc3ccccc31)c1ccccc12` [(-)-MK 801 Maleate] are 0.906 and 0.846.
